This note sets out measurements from PubChem BioAssay AID2202238 (Ras Initiative Chemistry Research Team, Frederick National …, 2025).

This test addresses GTPase KRas (Homo sapiens) (UniProt P01116). The test can be described thus: Covalent labelling of cysteine mutants by fragments, read by mass spectrometry (AID 2202238). On the set-up: protein at 5 µM with 500 µM competing thiol for 1.5 h. The following applies: KRAS G12D cysteine mutants, disulfide tethering, MALDI-TOF labeling, stronger effect = higher value, fragment at 500 µM.
Setting [1] is: measured here: G75C mutant labeling.
Where [2] appears, read: measured here: H94C mutant labeling.
[3] abbreviates: measured here: I36C mutant labeling.
Where [4] appears, read: measured here: L120C mutant labeling.
Setting [5] is: measured here: M67C mutant labeling.
[6] abbreviates: measured here: M72C mutant labeling.
Setting [7] is: measured here: N86C mutant labeling.
[8] abbreviates: measured here: P121C mutant labeling.
Where [9] appears, read: measured here: S122C mutant labeling.
The mark [10] stands for this setting: measured here: S136C mutant labeling.
Setting [11] is: measured here: G60C mutant labeling.
[12] abbreviates: measured here: N26C mutant labeling.

The structures appear in SMILES notation. This is one part of the list. These are further read-outs of the screen, such as a control signal, another cell line or another target. No call is given for them.

Chain of UniProt P01116 (P01116 whole entry, looked up, the tested form may be a part): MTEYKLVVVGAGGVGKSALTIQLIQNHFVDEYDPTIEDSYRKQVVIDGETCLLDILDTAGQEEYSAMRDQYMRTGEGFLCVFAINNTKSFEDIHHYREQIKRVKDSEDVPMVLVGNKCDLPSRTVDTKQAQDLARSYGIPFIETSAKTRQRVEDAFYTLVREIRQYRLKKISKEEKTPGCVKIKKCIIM

As for `O=C(CCS)Nc1ccc(-c2nnc3n2CCC3)cc1`, the percent labeling is, setting by setting: under setting [1], 16.9%; under setting [2], 23.1%; under setting [3], 23.1%; under setting [4], 23.2%; under setting [5], 22.5%; under setting [6], 43.9%. Further, the percent labeling is, setting by setting: under setting [7], 23.3%; under setting [8], 18.8%; under setting [9], 20%; under setting [10], 28.3%.
In the case of `CCC(C)c1ccccc1N1CC(C(=O)NCCS)CC1=O` (stereo not drawn), the percent labeling runs as follows: under setting [11], 52.6%; under setting [1], 25.3%; under setting [2], 45.3%; under setting [3], 31.6%; under setting [4], 34.1%; under setting [5], 45.5%. Besides, the percent labeling runs as follows: under setting [6], 44.6%; under setting [12], 41.2%; under setting [7], 26.3%; under setting [8], 38.6%; under setting [9], 31.1%; under setting [10], 74.5%.
Regarding `Cc1ccc(C)c(C(C(=O)NCCS)C(C)C)c1` (stereo not drawn), the percent labeling turned out to be 39.4% under setting [11]; 7.8% under setting [1]; 11.2% under setting [2]; 11.9% under setting [3]; 28.3% under setting [4]; 8.2% under setting [5]. For the same molecule, the percent labeling under setting [6] amounted to 15.6%; the percent labeling under setting [12] came to 17%; the percent labeling under setting [7] turned out to be 3.4%; the percent labeling under setting [8] was determined as 7.6%; the percent labeling under setting [9] came to 10.3%; the percent labeling under setting [10] came to 29.7%.
With `CCN(Cc1c(CO)cnc(C)c1O)C(=O)CCS`, the percent labeling came out at 9.5% under setting [1]; 30.4% under setting [2]; 34.3% under setting [3]; 32.6% under setting [4]; 44.8% under setting [5]; 17.9% under setting [6]. The molecule also had a percent labeling under setting [7] of 16.2%, a percent labeling under setting [8] of 30.9%, a percent labeling under setting [9] of 34.7% and a percent labeling under setting [10] of 50.6%.
`O=C(CN1C(=O)NC2(CCCc3ccccc32)C1=O)NCCS` (stereo not drawn): the percent labeling turned out to be 42.2% under setting [11]; 16% under setting [1]; 29.4% under setting [2]; 23.6% under setting [3]; 43.9% under setting [4]; 30.4% under setting [5]. The percent labeling is 38% under setting [6]; 40.2% under setting [12]; 24.3% under setting [7]; 26.7% under setting [8]; 36.2% under setting [9]; 38.8% under setting [10].
Consider `CN(Cc1ncc(Cl)n1C)C(=O)CCS`, for which the percent labeling is, setting by setting: under setting [1], 14%; under setting [2], 42.5%; under setting [3], 45.7%; under setting [4], 25.2%; under setting [5], 36.2%; under setting [6], 21.1%. Besides, the percent labeling under setting [7] amounted to 16.7%, the percent labeling under setting [8] is 32%, the percent labeling under setting [9] came to 28.5% and the percent labeling under setting [10] amounted to 59.6%.
With `O=C(CCS)N1CCc2nc(C3CCCCC3)[nH]c2C1`, the percent labeling is 11.5% under setting [1]; 28% under setting [2]; 36.5% under setting [3]; 32.8% under setting [4]; 36% under setting [5]; 23.1% under setting [6]. The percent labeling is, setting by setting: under setting [7], 20.3%; under setting [8], 22.7%; under setting [9], 25.8%; under setting [10], 48%.
On to `O=C(CCS)N1CCC(c2csc(-c3ccc(Cl)cc3)n2)CC1`, for which the percent labeling is 10.1% under setting [1]; 43.2% under setting [2]; 16.9% under setting [3]; 18.8% under setting [4]; 14.3% under setting [5]; 58.1% under setting [6]. Besides, the percent labeling is 14.9% under setting [7], 9.8% under setting [8], 4.2% under setting [9] and 23.3% under setting [10].
`O=C(CCC(=O)N1CCc2sccc2C1)NCCS`: the percent labeling reads like this: under setting [11], 27.6%; under setting [1], 11.7%; under setting [2], 22.8%; under setting [3], 15.6%; under setting [4], 28%; under setting [5], 24.7%. In addition, the percent labeling was determined as 12.1% under setting [6]; 24.3% under setting [12]; 15.9% under setting [7]; 21.1% under setting [8]; 20.5% under setting [9]; 27.6% under setting [10].
For `O=C(NCCS)C1CCN(CC(F)(F)F)C1` (stereo not drawn), the percent labeling is, setting by setting: under setting [11], 22.1%; under setting [1], 9.1%; under setting [2], 24.3%; under setting [3], 15.4%; under setting [4], 25.1%; under setting [5], 24.3%. In addition, the percent labeling is, setting by setting: under setting [6], 11.3%; under setting [12], 32.6%; under setting [7], 22.7%; under setting [8], 24.4%; under setting [9], 25.7%; under setting [10], 38.4%.
`N#Cc1ccccc1Oc1ccc(C(=O)NCCS)cc1Cl`: the percent labeling runs as follows: under setting [11], 27.1%; under setting [1], 15.2%; under setting [2], 12.6%; under setting [3], 0%; under setting [4], 9.3%; under setting [5], 7.7%. In addition, the percent labeling reads like this: under setting [6], 34.4%; under setting [12], 25%; under setting [7], 10.3%; under setting [8], 7.5%; under setting [9], 5.3%; under setting [10], 9.1%.
On to `O=C(CCS)Nc1nn(Cc2ccc(F)cc2)cc1Cl`, for which the percent labeling is, setting by setting: under setting [1], 16.8%; under setting [2], 33.9%; under setting [3], 36.2%; under setting [4], 35%; under setting [5], 51.1%; under setting [6], 36.4%. Moreover, the percent labeling runs as follows: under setting [7], 33%; under setting [8], 29.6%; under setting [9], 24%; under setting [10], 43.8%.
Turning to `CCC(C)(NC(=O)CCS)c1nc2c(c(=O)[nH]1)CCCC2` (stereo not drawn), the percent labeling under setting [1] amounted to 11.7%; the percent labeling under setting [2] was found to be 31.9%; the percent labeling under setting [3] is 39.6%; the percent labeling under setting [4] amounted to 37.7%; the percent labeling under setting [5] was 33.2%; the percent labeling under setting [6] came out at 23.7%. In addition, the percent labeling was determined as 35.5% under setting [7], 32.9% under setting [8], 27.4% under setting [9] and 47.1% under setting [10].
For `O=C(CCS)N1CCC(c2nc(-c3ccccc3)no2)CC1`, the percent labeling is 14.9% under setting [1]; 25.7% under setting [2]; 25.8% under setting [3]; 16.5% under setting [4]; 54.2% under setting [5]; 22.9% under setting [6]. The percent labeling stood at 21.2% under setting [7], 27.4% under setting [8], 16.9% under setting [9] and 32.7% under setting [10].
Turning to `O=C(CCc1ccc2c(c1)NC(=O)CO2)NCCS`, the percent labeling was determined as 48.5% under setting [11]; 19.2% under setting [1]; 36.1% under setting [2]; 37.5% under setting [3]; 37.6% under setting [4]; 41.2% under setting [5]. For the same molecule, the percent labeling came out at 44.2% under setting [6]; 45.9% under setting [12]; 29.8% under setting [7]; 36% under setting [8]; 34.3% under setting [9]; 45.4% under setting [10].
The molecule `O=C(CCS)N1CCn2c(cc3ccccc32)C1` yielded a percent labeling under setting [1] of 13.7%; a percent labeling under setting [2] of 8.4%; a percent labeling under setting [3] of 11.1%; a percent labeling under setting [4] of 5%; a percent labeling under setting [5] of 19.2%; a percent labeling under setting [6] of 3.7%. Moreover, the percent labeling was 0% under setting [7], 2.5% under setting [8], 0% under setting [9] and 14.1% under setting [10].
Consider `Cn1cc(C2CN(C(=O)CCS)CCO2)cn1` (stereo not drawn), for which the percent labeling came out at 9% under setting [1]; 23.3% under setting [2]; 30.8% under setting [3]; 28.1% under setting [4]; 26.9% under setting [5]; 13.5% under setting [6]. Besides, the percent labeling runs as follows: under setting [7], 13.4%; under setting [8], 28.5%; under setting [9], 26.5%; under setting [10], 43.1%.
`CC(CC(N)=O)c1ccc(NC(=O)CCS)cc1` (stereo not drawn): the percent labeling is 14.5% under setting [1]; 33.7% under setting [2]; 47.3% under setting [3]; 45.3% under setting [4]; 35.7% under setting [5]; 30.7% under setting [6]. Moreover, the percent labeling is, setting by setting: under setting [7], 38%; under setting [8], 38.9%; under setting [9], 33.7%; under setting [10], 57.4%.
As to `O=C(NCCS)C1(C(F)(F)F)CC=CCO1` (stereo not drawn), the percent labeling was 43.1% under setting [11]; 18.1% under setting [1]; 30.4% under setting [2]; 24.6% under setting [3]; 37.3% under setting [4]; 26% under setting [5]. Further, the percent labeling is, setting by setting: under setting [6], 31%; under setting [12], 33.4%; under setting [7], 37.4%; under setting [8], 33.5%; under setting [9], 31.2%; under setting [10], 41.3%.
For `O=C(CCS)Nc1cc2ccccc2nc1Cl`, the percent labeling was determined as 26.3% under setting [1]; 14.1% under setting [2]; 12.6% under setting [3]; 10.4% under setting [4]; 13.2% under setting [5]; 37.5% under setting [6]. The molecule further had a percent labeling under setting [7] of 9.3%, a percent labeling under setting [8] of 13%, a percent labeling under setting [9] of 9.4% and a percent labeling under setting [10] of 22.4%.
Consider `O=C(NCCS)c1cc2c(=O)[nH]c3ccccc3c2s1`, for which the percent labeling reads like this: under setting [11], 44.4%; under setting [1], 8.6%; under setting [2], 11.6%; under setting [3], 28.3%; under setting [4], 13.9%; under setting [5], 11.2%. Moreover, the percent labeling is, setting by setting: under setting [6], 82.6%; under setting [12], 20.9%; under setting [7], 12.6%; under setting [8], 9.3%; under setting [9], 9.1%; under setting [10], 25.1%.
Take `O=C(CCS)NCCn1ccc(=O)[nH]c1=O`: the percent labeling came to 9.4% under setting [1]; 21.5% under setting [2]; 36% under setting [3]; 31.4% under setting [4]; 26.9% under setting [5]; 11.3% under setting [6]. Further, the percent labeling is, setting by setting: under setting [7], 19.7%; under setting [8], 35.1%; under setting [9], 37.7%; under setting [10], 52.1%.
Turning to `O=C(CCS)NCc1ccc(Oc2cccnc2)c(F)c1`, the percent labeling under setting [1] was determined as 20.6%; the percent labeling under setting [2] was found to be 39.2%; the percent labeling under setting [3] came to 42.4%; the percent labeling under setting [4] worked out at 36.5%; the percent labeling under setting [5] was determined as 46.1%; the percent labeling under setting [6] stood at 58.7%. The molecule further came in with a percent labeling under setting [7] of 32.9%, a percent labeling under setting [8] of 33%, a percent labeling under setting [9] of 28.1% and a percent labeling under setting [10] of 47.7%.
